Measured values from the supplement of paper PMC3334620.
In all, about 33,000 sequences were measured (“E-score (-0.5 to 0.5)”: median about -0.035, highest 2% from about 0.35 on). The list shows a part of the results.

Molecular target: T1, Pdr3 (UniProt P33200)
T1 sequence: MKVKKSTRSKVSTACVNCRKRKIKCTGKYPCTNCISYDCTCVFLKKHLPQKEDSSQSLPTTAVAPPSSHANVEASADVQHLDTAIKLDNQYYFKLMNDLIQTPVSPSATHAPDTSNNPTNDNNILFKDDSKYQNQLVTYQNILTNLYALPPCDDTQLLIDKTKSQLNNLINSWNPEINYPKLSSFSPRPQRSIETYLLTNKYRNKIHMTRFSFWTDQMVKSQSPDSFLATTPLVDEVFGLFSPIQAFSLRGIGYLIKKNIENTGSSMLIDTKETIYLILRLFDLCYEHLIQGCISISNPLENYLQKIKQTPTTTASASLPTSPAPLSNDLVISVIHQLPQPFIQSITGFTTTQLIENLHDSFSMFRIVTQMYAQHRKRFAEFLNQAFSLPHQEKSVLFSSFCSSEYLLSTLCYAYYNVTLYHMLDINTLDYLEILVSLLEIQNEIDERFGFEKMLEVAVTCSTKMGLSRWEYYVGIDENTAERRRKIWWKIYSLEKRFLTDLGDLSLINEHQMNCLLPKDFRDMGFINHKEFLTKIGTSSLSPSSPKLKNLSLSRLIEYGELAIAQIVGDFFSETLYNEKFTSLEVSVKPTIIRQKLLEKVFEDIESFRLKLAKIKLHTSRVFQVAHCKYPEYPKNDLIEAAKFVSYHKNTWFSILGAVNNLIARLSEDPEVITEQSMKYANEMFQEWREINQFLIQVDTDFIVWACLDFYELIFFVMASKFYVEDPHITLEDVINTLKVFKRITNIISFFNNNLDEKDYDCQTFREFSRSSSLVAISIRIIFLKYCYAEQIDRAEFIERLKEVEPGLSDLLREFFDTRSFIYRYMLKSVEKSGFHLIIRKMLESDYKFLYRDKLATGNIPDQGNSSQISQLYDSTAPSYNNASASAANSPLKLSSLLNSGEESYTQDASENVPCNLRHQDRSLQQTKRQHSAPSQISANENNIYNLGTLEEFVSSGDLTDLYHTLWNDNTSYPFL
Experiment: PBM E-score (8-mer binding enrichment) (E-score (-0.5 to 0.5)); higher = stronger / more preferred TF binding; most listed sequences are background and not binding sites
Conditions: protein concentration: 200 nM; construct: GST-full length
Procedure, shortened: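 Masliner-normalised scans of fluorescent anti-GST signal were the basis for scoring. That signal came from GST-tagged yeast transcription factors applied at about 100-200 nM to double-stranded universal all-10-mer Agilent arrays on fresh or once-stripped slides. Each ungapped eight-base word, pooled with its reverse complement, received an E-score from the Universal PBM Analysis Suite.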

Sequence	PBM E-score
CATCAAAG	-0.031
AAACCTTA	-0.0635
AAACTATA	0.129
ACTACGTG	-0.181
CAGTCCGC	0.19
CACCGTGG	-0.0232
AGCTAAAG	-0.244
GGCTGCGA	0.117
CCGCTGCC	0.193
CAAATACC	0.00764
ATGCGAGA	-0.174
ACGACGCC	-0.0129
GTGATTCA	-0.131
CGGCGGGC	0.218
GGTAGTTA	-0.0665
ACGCTGGG	-0.0598
AGGCAAGG	-0.313
CGGCAGGC	0.0258
ACATATAC	-0.0316
ACTGGGAT	-0.0867
ATGGACGG	0.31
CGTACGAC	-0.265
CAGATCAC	0.027
GGAGTCGA	-0.00176
CGTAATTA	-0.0446

Sequence	PBM E-score
CGATGGAG	0.189
CCGAGCTA	0.183
CACGAGGA	-0.107
CATGCAAG	-0.053
AGATGAGC	-0.234
TATGTAGA	-0.182
GCACGCAA	-0.0728
CGCCTAGC	-0.263
CGCCTACA	-0.101
AGTAACAA	-0.13
CTACAGAG	-0.187
GGAATATA	0.277
ATGGTGGC	-0.169
GGAACGGA	0.431
AAAAGTGA	0.029
GAGTCATA	-0.0466
ATATTTAC	0.0408
CTGCGTCC	-0.0157
CAATCGGG	0.213
GGCTTTAA	-0.141
ATCGTGAG	-0.0865
CGCGTCAA	-0.0248
ATACTAAA	0.142
AGCCAAAC	0.126
CGAATCTC	0.194

Sequence	PBM E-score
ATCCTGTA	-0.163
AGCAAATG	-0.189
TAGAGACA	-0.214
GGCATTAC	0.27
GAGATCTC	0.111
CGAAAAGA	0.103
ATGTAGAA	-0.102
AAATCGCC	0.0775
CAATCAAG	-0.189
CACAGTTA	-0.0127
ACGATACC	0.129
CGTGTCTC	-0.024
AAGCAGAT	0.0624
CGTACACA	-0.0107
TGCGATAA	0.0592
ATGTCACC	0.138
TGCAAACA	-0.317
ACTAGGCG	0.00889
CGAATCGA	0.234
ATCCCGCG	0.465
CGTTGCTC	0.0359
GTTGTAGA	-0.177
GAATGTCC	0.163
AAGGATCA	-0.14
ATGAAGAC	-0.0295

Sequence	PBM E-score
AACTTTAA	0.162
TAGCTGGA	-0.304
GAAAGCCA	-0.104
CTGTCACA	-0.276
AAAAATTA	0.0222
ATGCGTGC	-0.00612
ATGAGTTG	0.0717
GGGAGCTA	-0.0835
CGTACGCC	-0.0877
ATAAGGCA	-0.134
CTCGTGGA	0.0284
GAGCGTGA	-0.128
CCTGGCTA	-0.245
CACAAGGC	-0.13
CAGGAGTC	-0.116
CCCTCAGG	-0.186
ACTGAAAT	-0.13
ATGATGTC	0.116
AGTTACTG	0.0448
AGAAATGG	-0.0712
CACATGTG	-0.171
CATCAACA	0.136
AGACTGGA	-0.213
AATGTCCG	0.294
TGAGCTCA	0.0858

Sequence	PBM E-score
AAGCCCAA	-0.123
CACAGAGA	-0.136
CAATCTAG	-0.00886
CAACCGGA	0.379
CGGTAAAA	0.195
GACCTGCC	0.0141
CACTAACG	-0.161
CCTTCCTC	-0.201
GCGTGACC	-0.0544
GAATATTC	0.189
ACTCGGGA	0.285
CGATCCGC	0.353
AGTATTAC	-0.0706
AACGTGGC	-0.0344
AACCATGA	0.0879
CAGGTTAC	-0.0365
CGGAGAGA	0.348
CAGGATGG	-0.109
AGGCGAAA	-0.0968
TAGCGATA	-0.106
GACGGGAC	0.2
GAATCCAA	0.182
AAGGAAAC	0.0238
ACCCAGTG	-0.165
ACACACTA	-0.00329

Sequence	PBM E-score
AATGCATT	0.124
ATCCAACG	0.0188
CTGGGCTA	0.0113
CTATTTCA	0.152
CGCCAGGA	-0.0126
AGCGACGG	0.258
ACGAGCAG	-0.0922
AAATCATA	0.0935
AAGCGAAC	-0.0673
CGCGCTCA	0.113
ATACGACC	-0.14
CGGGCGAA	0.165
GGGCGAAC	0.206
GTCGGTTA	0.0723
ACCGTCGT	0.06
CATCTTCC	0.219
ACATTGGC	-0.153
CACCGGAC	0.341
ACGGAAGC	0.427
CACCCTGC	-0.0337
GCATTCCC	0.0305
TACCTCAA	-0.0831
AAGGGTCA	-0.144
ATCTTCTA	-0.0919
ACATACCC	-0.00671

Sequence	PBM E-score
GCAAAGGA	0.0137
ATCAACTA	0.0261
ATATTCCC	0.266
GAATTGCC	0.19
AAAGCAGA	-0.0388
GACCAACC	-0.064
CAAGAGGA	-0.177
CGCCAGCG	-0.0638
TTGTGAAA	-0.0598
ACATGATC	-0.127
AAGGTTTA	-0.264
GCTCTCCC	0.00691
AAAATATT	0.162
AGTGGACC	-0.129
AATGGGGC	-0.158
ATGTCCGA	0.207
CGATTTAA	0.0128
CATTAAAC	-0.0316
CAGGGATG	-0.00152
CTGTAACC	0.116
CATAAATC	0.0877
GATTTGGA	-0.0423
